Data: the supplement of paper PMC8728848
The list shows a part of the results.

How the values were obtained:
Assay in all cases: glycan array binding signal (z-score within array); higher = stronger binding
Settings in all cases: glycan notation: IUPAC condensed, linker removed
[1] = biological target: Neu5Ac(a2-3)Gal(b1-4)GlcNAc(b1-3)Gal(b1-4)GlcNAc(b1-3)Gal(b1-4)GlcNAc
How it was run: (§1)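 The binding signal is a Z-score computed within each array. Data were drawn from 3228 arrays in the Consortium for Functional Glycomics database, restricted to those with a known protein sequence. Scores were averaged over arrays of the same protein sequence at different concentrations or buffers, and over linkers, and negative values can be taken as non-binding.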

[2] = biological target: Neu5Ac(a2-3)Gal(b1-4)GlcNAc(b1-3)Gal(b1-4)GlcNAc(b1-3)Gal(b1-4)GlcNAc(b1-2)Man(a1-3)[Neu5Ac(a2-3)Gal(b1-4)GlcNAc(b1-3)Gal(b1-4)GlcNAc(b1-3)Gal(b1-4)GlcNAc(b1-2)Man(a1-6)]GalNAc
How it was run: as §1

[3] = biological target: Neu5Ac(a2-3)Gal(b1-4)GlcNAc(b1-3)Gal(b1-4)GlcNAc(b1-3)GalNAc
How it was run: as §1

[4] = biological target: Neu5Ac(a2-3)Gal(b1-4)GlcNAc(b1-3)Gal(b1-4)GlcNAc(b1-3)[Neu5Ac(a2-3)Gal(b1-4)GlcNAc(b1-3)Gal(b1-4)GlcNAc(b1-6)]GalNAc
How it was run: as §1

[5] = biological target: Neu5Ac(a2-3)Gal(b1-4)GlcNAc(b1-3)Gal(b1-4)GlcNAc(b1-6)[Gal(b1-3)]GalNAc
How it was run: as §1

[6] = biological target: Neu5Ac(a2-3)Gal(b1-4)GlcNAc(b1-3)Gal(b1-4)[Fuc(a1-3)]GlcNAc
How it was run: as §1

[7] = biological target: Neu5Ac(a2-3)Gal(b1-4)GlcNAc(b1-3)GalNAc
How it was run: as §1

[8] = biological target: Neu5Ac(a2-3)Gal(b1-4)GlcNAc(b1-3)[Neu5Ac(a2-3)Gal(b1-4)GlcNAc(b1-6)]GalNAc
How it was run: as §1

[9] = biological target: Neu5Ac(a2-3)Gal(b1-4)GlcNAc(b1-6)GalNAc
How it was run: as §1

[10] = biological target: Neu5Ac(a2-3)Gal(b1-4)GlcNAc(b1-6)[Gal(b1-3)]GalNAc
How it was run: as §1

[11] = biological target: Neu5Ac(a2-3)Gal(b1-4)GlcNAc(b1-6)[Neu5Ac(a2-3)Gal(b1-3)]GalNAc
How it was run: as §1

[12] = biological target: Neu5Ac(a2-3)Gal(b1-4)GlcNAc6S
How it was run: as §1

[13] = biological target: Neu5Ac(a2-3)Gal(b1-4)[Fuc(a1-3)]GlcNAc
How it was run: as §1

[14] = biological target: Neu5Ac(a2-3)Gal(b1-4)[Fuc(a1-3)]GlcNAc(b1-2)Man
How it was run: as §1

[15] = biological target: Neu5Ac(a2-3)Gal(b1-4)[Fuc(a1-3)]GlcNAc(b1-3)Gal
How it was run: as §1

[16] = biological target: Neu5Ac(a2-3)Gal(b1-4)[Fuc(a1-3)]GlcNAc(b1-3)Gal(b1-4)GlcNAc
How it was run: as §1

[17] = biological target: Neu5Ac(a2-3)Gal(b1-4)[Fuc(a1-3)]GlcNAc(b1-3)Gal(b1-4)[Fuc(a1-3)]GlcNAc(b1-3)Gal(b1-4)[Fuc(a1-3)]GlcNAc
How it was run: as §1

[18] = biological target: Neu5Ac(a2-3)Gal(b1-4)[Fuc(a1-3)]GlcNAc(b1-3)GalNAc
How it was run: as §1

[19] = biological target: Neu5Ac(a2-3)Gal(b1-4)[Fuc(a1-3)]GlcNAc(b1-6)[Gal(b1-3)]GalNAc
How it was run: as §1

[20] = biological target: Neu5Ac(a2-3)Gal(b1-4)[Fuc(a1-3)]GlcNAc(b1-6)[Neu5Ac(a2-3)Gal(b1-3)]GalNAc
How it was run: as §1

[21] = biological target: Neu5Ac(a2-3)Gal(b1-4)[Fuc(a1-3)]GlcNAc6S
How it was run: as §1

[22] = biological target: Neu5Ac(a2-3)Gal6S(b1-4)GlcNAc
How it was run: as §1

[23] = biological target: Neu5Ac(a2-3)Gal6S(b1-4)[Fuc(a1-3)]GlcNAc
How it was run: as §1

[24] = biological target: Neu5Ac(a2-3)GalNAc
How it was run: as §1

[25] = biological target: Neu5Ac(a2-3)GalNAc(b1-4)GlcNAc
How it was run: as §1

[26] = biological target: Neu5Ac(a2-3)[GalNAc(b1-4)]Gal(b1-4)Glc
How it was run: as §1

[27] = biological target: Neu5Ac(a2-3)[GalNAc(b1-4)]Gal(b1-4)GlcNAc
How it was run: as §1

[28] = biological target: Neu5Ac(a2-3)[GalNAc(b1-4)]Gal(b1-4)GlcNAc(b1-3)GalNAc
How it was run: as §1

[29] = biological target: Neu5Ac(a2-3)[Neu5Ac(a2-6)]GalNAc
How it was run: as §1

[30] = biological target: Neu5Ac(a2-6)Gal
How it was run: as §1

[31] = biological target: Neu5Ac(a2-6)Gal(b1-3)GlcNAc(b1-3)[Gal(b1-4)GlcNAc(b1-6)]Gal(b1-4)Glc
How it was run: as §1

[32] = biological target: Neu5Ac(a2-6)Gal(b1-4)Glc
How it was run: as §1

[33] = biological target: Neu5Ac(a2-6)Gal(b1-4)GlcNAc
How it was run: as §1

[34] = biological target: Neu5Ac(a2-6)Gal(b1-4)GlcNAc(b1-2)Man
How it was run: as §1

[35] = biological target: Neu5Ac(a2-6)Gal(b1-4)GlcNAc(b1-2)Man(a1-3)Man(b1-4)GlcNAc(b1-4)GlcNAc
How it was run: as §1

[36] = biological target: Neu5Ac(a2-6)Gal(b1-4)GlcNAc(b1-2)Man(a1-3)[Gal(b1-4)GlcNAc(b1-2)Man(a1-6)]Man(b1-4)GlcNAc(b1-4)GlcNAc
How it was run: as §1

[37] = biological target: Neu5Ac(a2-6)Gal(b1-4)GlcNAc(b1-2)Man(a1-3)[GlcNAc(b1-2)Man(a1-6)]Man(b1-4)GlcNAc(b1-4)GlcNAc
How it was run: as §1

[38] = biological target: Neu5Ac(a2-6)Gal(b1-4)GlcNAc(b1-2)Man(a1-3)[GlcNAc(b1-4)][Neu5Ac(a2-6)Gal(b1-4)GlcNAc(b1-2)Man(a1-6)]Man(b1-4)GlcNAc(b1-4)GlcNAc
How it was run: as §1

B1: PV12658A-bvu-496-32-496 (Bacteroides vulgatus) (protein)
chain: DLDGAITTPAAVELALNGIYYSLPGNGFNVIFPTVSGSFKAGTMWRQEIVSAGNAVYYSERMLPTLSFSDATEWDADYAVIKNANFLETACNRMSDGEFSGNRRAEVLGEIAYLRALAYFNILVRYCEFWDMNSEYGVVMRNEAPSVSNALKARSSVADSYQYILDQLEIAIEKAPDWKKLSQASKEAAKALKARVLLYAGKYTEAVAAVNDAIDTNSPLPEANYGDVFDKFSTTKEILFARVFDQKDATNTSTRQQCYGNSPTKKQGYWGPTNEYVELVGDDPRADAIFSKVDSLMDSRSSAVAYNLKSVKKLLNDANDMPVIFSRVSELYLIKAEALYRSGASISEAYAPIRKLRERAGAEIILPANNEELETAIFNEWMLELSFENWHEWFAMIRFAGYTEKPDFTRLLALNKTLREALEKEYEKSEAQGDNYYQRIIDRRIDAIPSSEISSNLECKQNPGY
- glycan array binding signal (z-score) [1]: -0.336
- glycan array binding signal (z-score) [2]: 7.6
- glycan array binding signal (z-score) [3]: -0.414
- glycan array binding signal (z-score) [4]: 0.145
- glycan array binding signal (z-score) [5]: -0.469
- glycan array binding signal (z-score) [6]: -0.353
- glycan array binding signal (z-score) [7]: 0.325
- glycan array binding signal (z-score) [8]: -0.138
- glycan array binding signal (z-score) [9]: -0.479
- glycan array binding signal (z-score) [10]: -0.181
- glycan array binding signal (z-score) [11]: -0.419
- glycan array binding signal (z-score) [12]: -0.525
- glycan array binding signal (z-score) [13]: -0.451
- glycan array binding signal (z-score) [14]: -0.411
- glycan array binding signal (z-score) [15]: -0.38
- glycan array binding signal (z-score) [16]: 0.097
- glycan array binding signal (z-score) [17]: -0.253
- glycan array binding signal (z-score) [18]: -0.158
- glycan array binding signal (z-score) [19]: 4.21
- glycan array binding signal (z-score) [20]: -0.336
- glycan array binding signal (z-score) [21]: -0.488
- glycan array binding signal (z-score) [22]: -0.235
- glycan array binding signal (z-score) [23]: -0.586
- glycan array binding signal (z-score) [24]: 0.038
- glycan array binding signal (z-score) [25]: -0.164
- glycan array binding signal (z-score) [26]: -0.122
- glycan array binding signal (z-score) [27]: -0.266
- glycan array binding signal (z-score) [28]: -0.198
- glycan array binding signal (z-score) [29]: -0.255
- glycan array binding signal (z-score) [30]: -0.372
- glycan array binding signal (z-score) [31]: -0.171
- glycan array binding signal (z-score) [32]: -0.318
- glycan array binding signal (z-score) [33]: -0.226
- glycan array binding signal (z-score) [34]: -0.215
- glycan array binding signal (z-score) [35]: -0.096
- glycan array binding signal (z-score) [36]: -0.42
- glycan array binding signal (z-score) [37]: -0.37
- glycan array binding signal (z-score) [38]: -0.152
